Data as given in patent US6262067A, “Polymorphs of a crystalline azo-bicyclo 2,2,2 OCT-3-yl amine dihydrochloride and their pharmaceutical compositions” (priority 2000, dated 2001).

Assay: Thermal water loss and degradation (TGA/DTA, DSC, fusion microscopy)
Format: physicochemical

For `COc1ccc(C(C)C)cc1CN[C@H]1C2CCN(CC2)[C@H]1C(c1ccccc1)c1ccccc1` [Form II, (2-Benzhydryl-1-azo-bicyclo 2,2,2oct-3-yl)-(5-isoproyl-2-methoxybenzyl)-amine], the “DSC hydrates off temperature” value (first hydrate-off event) was ~ 130 °C and the “DSC hydrates off temperature” value (second hydrate-off event) was ~ 155 °C.

Some values that stand alone complete this part of the results.
